# Measured values published in paper PMC4336329 (PLoS ONE, 2015).
# Out of some 310,000 compounds screened, about 14,000 (4.5%) showed an effect of 50% or more. Effects have a minus sign here. Some of the results follow.
# Molecular target: human ether-à-go-go-related gene (hERG) potassium channel (human, UniProt Q12809)
# Assay: primary screen, population patch clamp on CHO cells stably expressing hERG
# 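Further: peak tail current of the secondary pulse compared with the same well before compound.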
# Chain of human ether-à-go-go-related gene (hERG) potassium channel (Q12809 whole entry, looked up): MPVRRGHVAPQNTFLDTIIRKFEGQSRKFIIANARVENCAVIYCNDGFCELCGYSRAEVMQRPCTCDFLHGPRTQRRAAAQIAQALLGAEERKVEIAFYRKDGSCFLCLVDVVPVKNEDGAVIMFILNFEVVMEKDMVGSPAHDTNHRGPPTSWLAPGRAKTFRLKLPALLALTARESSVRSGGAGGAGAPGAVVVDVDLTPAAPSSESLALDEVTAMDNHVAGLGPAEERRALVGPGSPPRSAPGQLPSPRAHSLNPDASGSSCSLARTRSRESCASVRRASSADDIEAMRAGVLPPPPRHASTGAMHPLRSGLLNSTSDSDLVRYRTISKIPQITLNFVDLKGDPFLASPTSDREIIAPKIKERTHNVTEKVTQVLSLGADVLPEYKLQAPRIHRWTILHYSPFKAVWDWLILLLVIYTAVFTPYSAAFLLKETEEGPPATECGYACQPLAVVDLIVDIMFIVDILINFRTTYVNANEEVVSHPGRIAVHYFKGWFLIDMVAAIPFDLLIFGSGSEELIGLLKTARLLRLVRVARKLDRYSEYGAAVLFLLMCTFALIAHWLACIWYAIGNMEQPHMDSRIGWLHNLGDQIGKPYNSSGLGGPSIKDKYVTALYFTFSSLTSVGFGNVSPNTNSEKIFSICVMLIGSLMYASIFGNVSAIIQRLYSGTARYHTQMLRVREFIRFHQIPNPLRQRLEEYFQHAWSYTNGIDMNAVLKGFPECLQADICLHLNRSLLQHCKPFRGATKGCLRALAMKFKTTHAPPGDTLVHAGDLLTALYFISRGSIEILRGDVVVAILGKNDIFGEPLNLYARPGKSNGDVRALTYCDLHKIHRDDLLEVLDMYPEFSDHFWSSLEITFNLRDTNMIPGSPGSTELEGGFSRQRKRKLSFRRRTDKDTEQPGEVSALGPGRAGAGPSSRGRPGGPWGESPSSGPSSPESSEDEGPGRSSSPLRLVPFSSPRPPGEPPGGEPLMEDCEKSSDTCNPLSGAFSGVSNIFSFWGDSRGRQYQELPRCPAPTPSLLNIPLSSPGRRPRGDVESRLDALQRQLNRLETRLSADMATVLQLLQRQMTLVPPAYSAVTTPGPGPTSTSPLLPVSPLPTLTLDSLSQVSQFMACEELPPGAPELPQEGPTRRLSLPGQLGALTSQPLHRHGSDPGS
row,SMILES,"hERG current change (%, negative = inhibition) at 10uM"
1,COc1ccc(NC(=O)c2ccc(-c3nn(C)c(=O)c4ccccc34)cc2)cc1,-0.298%
2,COc1ccc(NC(=O)CS(=O)CC(=O)Nc2ccc(NC(C)=O)cc2)cc1 (stereo not drawn),0.473%
3,CC(=O)N1CCC(N2CCN(c3ccccc3F)CC2)CC1,0.444%
4,Cc1ccc(-n2c(SCC(=O)NCc3ccco3)nc3sc(C)c(C)c3c2=O)cc1,5.77%
5,CCc1ccc(/C=N/n2c(C)cc(C)c(C#N)c2=O)cc1,11.8%
6,COC(=O)c1cc(NC(=O)CN(C)Cc2ccccc2)cc(C(=O)OC)c1,5.95%
7,CC1CC(C)CN(C(=O)CNC(=O)Cn2ccc3ccccc3c2=O)C1 (stereo not drawn),0.125%
8,O=C(Nc1ccc(Nc2ccccc2)cc1)C(Cl)Cl,-24.1%
9,CC(C)COc1ccc(C(=O)OCCN2CCOCC2)c(O)c1.Cl,-25.2%
10,COCCCNC(=O)c1cc(C)nn1-c1ccccc1,7.55%
11,O=S(=O)(NC1CCN(Cc2ccccc2)CC1)c1cccc(S(=O)(=O)N2CCOCC2)c1,-43.4%
12,COc1ccc(CCNC(=O)COc2cccc3c2OC(C)(C)C3)cc1OC,1.83%
13,COC(=O)Oc1cncc(C(=O)O)c1,15.2%
14,COc1ccc2c(c1)CCc1sc(NC(=O)c3ccco3)nc1-2,5.53%
15,O=C(CSc1nnc(CCc2ccccc2)n1-c1ccc(Cl)cc1)NCc1ccccc1,-18.4%
16,C=CCNC(=O)c1ccccc1CCc1ccccc1,4.52%
17,O=C(CSc1nnc(Cc2ccccc2)o1)N1CCCc2ccccc21,-3.73%
18,CC(C)COc1ccc(C(=O)Nc2ncn[nH]2)cc1,16%
19,C=C(C(=O)c1ccccc1)C(CC(=O)c1ccccc1)c1ccccc1 (stereo not drawn),12.6%
20,COc1ccc(S(=O)(=O)NCc2ccc(C(=O)NCCCN3CCCC(C)C3)cc2)cc1 (stereo not drawn),-2.65%
21,O=C1Cc2ccccc2C(=O)N1c1cccc(Cl)c1,16.1%
22,CCCCOc1ccc(C(=O)NCCc2cccs2)cc1,3.76%
23,O=C(CSc1ccccc1F)OCC(=O)N1CCN(C(=O)c2ccco2)CC1,-27.2%

row,SMILES,"hERG current change (%, negative = inhibition) at 10uM"
1,COc1cccc(/C=C/C(=O)OCC(=O)c2c(N)n(C)c(=O)n(C)c2=O)c1,18.7%
2,CC(C(=O)O)N1C(=O)CSc2ncccc21 (stereo not drawn),6.44%
3,CC(C)CCCC(C)NS(=O)(=O)Cc1ccccc1 (stereo not drawn),-9.59%
4,CCOc1ccc(C(=O)NC2=NCCS2)cc1,-4.04%
5,COc1ccc(C2C(C(C)=O)=C(C)Nc3ncnn32)cc1OC (stereo not drawn),-2.53%
6,Nc1ccc2nc(SCC(=O)N3CCOCC3)sc2c1,17%
7,Cc1ccc(/C=C(\NC(=O)c2ccccc2)C(=O)NCCN2CCOCC2)o1,-3.91%
8,COC(=O)c1sc(OC)cc1OCc1ccc(C)cc1,4.43%
9,O=C(CNS(=O)(=O)c1ccc(F)c(Cl)c1)N1CCCC1,0.688%
10,COc1ccc(C(=O)NNC(=O)c2ccncc2)cc1,-8.32%
11,CCCNC(=O)CC(NS(=O)(=O)c1ccc(OC)cc1)c1ccco1 (stereo not drawn),6.28%
12,O=C(NCCc1ccccc1)C1CCN(S(=O)(=O)N2CCC3(CC2)OCCO3)CC1,-0.566%
13,O=C(CCNS(=O)(=O)c1ccccc1)N1CCN(c2ccccc2)CC1,-14.9%
14,Cc1ccc(NC2CCCN(C(=O)CCn3nccc3C)C2)cc1C (stereo not drawn),-1.08%
15,COc1cccc(NC(=O)c2cc([N+](=O)[O-])ccc2NCc2cccnc2)c1,-44%
16,CCN(CC)CCn1cnc2c1c(=O)[nH]c(=O)n2Cc1ccccc1.Cl,-4.74%
17,O=S(=O)(c1ccc(NC(=S)NC2CC2)cc1)N1CCOCC1,21%
18,Cc1[nH]c2ccc(C(=O)N3CCN(c4cccc(Cl)c4)CC3)cc2c1C,11.8%
19,O=[N+]([O-])c1ccc(S(=O)(=O)Nc2ccncc2)cc1,6.09%
20,COc1ccc(CCNC(=O)c2sc3nc4n(c(=O)c3c2C)CCC4)cc1,-7.25%
21,Cn1c(C(=O)NCCCN2CCCCC2)cc2sccc21,-49%
22,CCCn1c(=O)[nH]c(=O)c2[nH]cnc21,20.1%
